According to article PMC12136788:
This is one part of the list.

T1: UNK ZnF1-3 (human, UniProt Q9C0B0 31-174)
T1 sequence: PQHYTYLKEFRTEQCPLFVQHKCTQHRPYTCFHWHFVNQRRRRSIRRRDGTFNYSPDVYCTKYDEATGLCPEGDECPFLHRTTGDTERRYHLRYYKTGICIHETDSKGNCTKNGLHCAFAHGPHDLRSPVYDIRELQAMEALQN

B1: chr10:57939204:57939205:+_ENSMUSG00000003226_ENSMUST00000003310|mus_hu|motif|central (ssRNA)
RNA: GGGAGUUCUACAGUCCGACGAUCAGAUGGCCUUAAUCCUUCACCCGGCAUGGGCUGAACAAAAUUAGUUUUCCCAAAUUCGGUAGUCUUAGAUUCUGCAGAUCUUGAAGCAUGAGCUGCAAUCGGAGGUUUUGUGAAAUAUCCCAACAGAGGAUUGAGCAUCA
B2: chr11:87793471:87793472:-_ENSMUSG00000020483_ENSMUST00000020775|mus_mus|mus_mus_mus_hu_False|48_78 (ssRNA)
RNA: GGGAGUUCUACAGUCCGACGAUCUGGACUUGAAAAUAAAAGAAUAAGCUGGAUCCCCCCACCCCUUACAUUGUCAACCCUACACGAGUUCUGAAUGGGCGACUCAUGAAAAUCAGCAGCUCAAACGGCAAUGACCACCCCACCCAACAGAGGAUUGAGCAUCA
B3: chr6:87000925:87000926:+_ENSMUSG00000029992_ENSMUST00000113658|mus_hu|FALSE|FALSE (ssRNA)
RNA: GGGAGUUCUACAGUCCGACGAUCUUUGAUUAGGGUCUCCAGGAUUUCUCGUCUCGUUCGAGGAACAUGGUAGUUUAAGUAAGCAAAUAUACCACACAUGAUGCCGGAGACACGGCCCGCGAGGCCAGGGGCGAGUGGCUGGCGCAACAGAGGAUUGAGCAUCA
B4: chr12:53620312:53620313:+_ENSMUSG00000035133_ENSMUST00000110725|mus_hu|motif|central (ssRNA)
RNA: GGGAGUUCUACAGUCCGACGAUCAGGUUUAAUAGGUGGAGGCACUUUAUGGUUGCGUUCAUGGUCAUGACAGUUUGGGGUACGGUGAAUAGGAUACUCAUUUCCUUCCAAAUCUAAUCUAUAUCUGGAACGGUCACUAGGUGUCAACAGAGGAUUGAGCAUCA
B5: chr17:65944371:65944372:-_ENSMUSG00000024091_ENSMUST00000024897|mus_hu|motif|central (ssRNA)
RNA: GGGAGUUCUACAGUCCGACGAUCGGGCCUCACACAGUACCGGCGAGGUGCUGUAGUCUUCACUUUGAAACACACUUUUCGGUCCGAUGGAUUUCGCAAUUUAAGAUUUGUAGUGACUACAUCUGUGAAGGGGCCUUUGAAUUUCAACAGAGGAUUGAGCAUCA
B6: chr10:62048396:62048397:-_ENSMUSG00000020075_ENSMUST00000045866|mus_hu|motif|central (ssRNA)
RNA: GGGAGUUCUACAGUCCGACGAUCAGCUUCCACAGCUCCCUUCUCCUCUAUCAGCUUCUCAGCUGAUUGUUUGAAGUGACGGAUGGCAGUGGGAGGCACGGAAUCCAAAAGCCUGAUGGCAUCUUUGCUGGAAGCUUUUAUUAUCAACAGAGGAUUGAGCAUCA
B7: chr11:87793471:87793472:-_ENSMUSG00000020483_ENSMUST00000020775|mus_mus|mus_mus_mus_hu_False|88_108 (ssRNA)
RNA: GGGAGUUCUACAGUCCGACGAUCUGGGGGCUGGGGAAAAAGAAUAAGCUAGAUUUCCCACCCCCCCACAUUGUCAACCCUACACGAGAGUUUUGAAGGCGACUCAUGAAAAUCAGCAGCUCAAACGGCAAUGACCACCCCACCCAACAGAGGAUUGAGCAUCA
B8: chr2:46850943:46850944:+_ENSG00000119878_ENST00000238892|hu_mus|FALSE|FALSE (ssRNA)
RNA: GGGAGUUCUACAGUCCGACGAUCGUAGGCGCAGCCUUGACAGUAAUGAGAACCUGGCUGGUGUACAGAACUUUUACAAAUUCUGCAAGUGGAGAACUUAUUUUUUCCAUAUGGAUCAAACCUUGCUUUUUUCGAAGUCAAAGCCAACAGAGGAUUGAGCAUCA
B9: 93373553_93456162_161_5pUTR_ENSMUSG00000056608_ENSMUST00000048665|mouse|control|control (ssRNA)
RNA: GGGAGUUCUACAGUCCGACGAUCUGAAGCAUCAGAAUCCUGAGAGGAAGAGGUAGGAAAGGAGACAGACGCUGUCUCAGACUCUGGAUCCCACGGAUUCUGCAAUCGUCAGGAGUGCCACAGAGCAGGCUGUGUGUGUCUGUGCAACAGAGGAUUGAGCAUCA
B10: chr14:89338683:89338684:+_ENSG00000165533_ENST00000346301|hu_hu|FALSE|FALSE (ssRNA)
RNA: GGGAGUUCUACAGUCCGACGAUCGUUGUUGUUGUUGACCAGAGCCAGCCUGAAGCACUGAUGGGCCAAAUUUGUAUCUCCUAUUCCCACAGCUACAUGUCCCAAGUUGUACCAGACAUCAGCUGCCUCUUCUUCAUUUUCAGCCAACAGAGGAUUGAGCAUCA
B11: chr11:107358869:107358870:+_ENSMUSG00000020720_ENSMUST00000021063|mus_hu|motif|central (ssRNA)
RNA: GGGAGUUCUACAGUCCGACGAUCCUCUGGAAGUUGAUAAUUCCUGCUAAUCUGUCUACUUUAGCAAAGAUGGUCUUGUUAACGGCGGGAUUUGAGAGAAAGGCUUCGGACUCAUCAACAGAUAGAUCCAGAAGCUGUGCCAUCCAACAGAGGAUUGAGCAUCA
B12: chr7:141441981:141441982:+_ENSG00000106028_ENST00000265304|hu_mus|hu_hu_hu_mus_False|18_38 (ssRNA)
RNA: GGGAGUUCUACAGUCCGACGAUCCUCAUGUCUUACAAACUGACGAAAUACCUGUAACACAGGUCUUCGAAACAUGGCUUCUGUUUUUCUUACAACCAGUCUAAUCUGCUUUUCCUACCUGACGAUCAGAAAAGAGAAAAAUGACAACAGAGGAUUGAGCAUCA
B13: chr2:181286759:181286760:+_ENSMUSG00000000826_ENSMUST00000072334|mus_mus|motif|central (ssRNA)
RNA: GGGAGUUCUACAGUCCGACGAUCGUGUUAACUGAACAUUAGAAGGGUAGGAAAGGUCAUAAACAUUGCACAGAAUCAUCGGAAGUAAUCUUAAAAUACAGUCAAAAGGAAGACAAGGAAAGACAUCACUGGGCACAAACAGAACAACAGAGGAUUGAGCAUCA
B14: chr11:77336104:77336105:-_ENSG00000074201_ENST00000525064|hu_mus|hu_hu_hu_mus_False|48_68 (ssRNA)
RNA: GGGAGUUCUACAGUCCGACGAUCCUCACACAUUGCUGUGAACAUCGCCUCCAAUGCUGACUUAUCACUAGGCACAAAUCGAAAUUCAGUAAUAGGUUCAACAUCAUCAUUGUCUUCCUCAUCUUCAUCAGAGAGAGGUUCUUUCAACAGAGGAUUGAGCAUCA

These binders were tested against T1, UNK ZnF1-3 (assay: nsRBNS (natural sequence RNA bind-n-seq); RBNS binding buffer (assumed for nsRBNS): 25 mM Tris pH 7.5, 150 mM KCl, 3 mM MgCl2, 0.01% Triton X-100, 500 ug/ml BSA, 20 U/ml SUPERase-In, 4 C; UNK is unkempt and MSI1 is Musashi-1; names of the RNAs are library labels; protein concentration not given here; high values mean tight binding).

Binder | binding signal [enrichment R]
B1 | 0.876
B2 | 1.73
B3 | 0.906
B4 | 0.652
B5 | 0.763
B6 | 0.909
B7 | 1.72
B8 | 0.748
B9 | 0.902
B10 | 0.659
B11 | 1.49
B12 | 0.852
B13 | 2.34
B14 | 0.835
